Test results: patent US8318813B2, “Method of treating binge eating disorder” (LCS Group, LLC, priority 2007, dated 2012)

System: Patient with Major Depressive Disorders and Binge Eating Disorder
Assay: Case report Patient 1: lisdexamfetamine dimesylate added to ZOLOFT
Details: by the time of 70 mg daily, with 100 mg ZOLOFT

CS(=O)(=O)O.CS(=O)(=O)O.C[C@@H](Cc1ccccc1)NC(=O)[C@@H](N)CCCCN [lisdexamfetamine dimesylate, (2S)-2,6-diamino-N-[(1S)-1-methyl-2-phenylethyl]hexanamide dimethanesulfonate]
symptoms of inattention, forgetfulness, procrastination and physical restlessness: significant improvement
